B1: EAD406 (other)
heavy: EVQLVQSGAEVKKPGESLKISCKGSGYAFTNYLIEWVRQMPGKGLEWMGVINPGSGGTNYNEKFKGQVTISADKSISTAYLQWSSLKASDTAMYYCARWRGEGYYAYFDVWGQGTTVTVSSASTKGPSVFPLAPSSKSTSGGTAALGCLVKDYFPEPVTVSWNSGALTSGVHTFPAVLQSSGLYSLSSVVTVPSSSLGTQTYICNVNHKPSNTKVDKRV[not shown - human IgG1 Fc with changes]
light: AIRLTQSPSSFSASTGDRVTITCKASQSVDYNFHLRPRDLISNINVIVLELKGSETTFMCEYADETATIVEFLNRWITFSQSIISTLTPTSSSTKKTQLQLEHLLLDLQMILNGINNYKNPKLTRMLTFKFYMPKKATELKHLQCLEEELKPLEEVLNLAQSKGDSYMNWYQQKPGKAPKLLIYAASNLESGVPSRFSGSGSGTDFTLTISSLQSEDFATYYCQQSNEDPYTFGGGTKVEIKRTVAAPSVFIFPPSDEQLKSGTASVVCLLNNFYPREAKVQWKVDNALQSGNSQESVTEQDSKDSTYSLSSTLTLSKADYEKHKVYACEVTHQGLSSPVTKSFNRGEC
notes: also called EAD409
B2: XFO227 (other)
heavy: EVQLVQSGAEVKKPGESLKISCKGSGYAFTNYLIEWVRQMPGKGLEWMGVINPGSGGTNYNEKFKGQVTISADKSISTAYLQWSSLKASDTAMYYCARWRGEGYYAYFDVWGQGTTVTVSSASTKGPSVFPLAPSSKSTSGGTAALGCLVKDYFPEPVTVSWNSGALTSGVHTFPAVLQSSGLYSLSSVVTVPSSSLGTQTYICNVNHKPSNTKVDKRV[not shown - human IgG1 Fc with changes]
light: AIRLTQSPSSFSASTGDRVTITCKASQSVDYGGNFHLRPRDLISNINVIVLELKGSETTFMCEYADETATIVEFLNRWITFSQSIISTLTPTSSSTKKTQLQLEHLLLDLQMILNGINNYKNPKLTRMLTFKFYMPKKATELKHLQCLEEELKPLEEVLNLAQSKGGGDSYMNWYQQKPGKAPKLLIYAASNLESGVPSRFSGSGSGTDFTLTISSLQSEDFATYYCQQSNEDPYTFGGGTKVEIKRTVAAPSVFIFPPSDEQLKSGTASVVCLLNNFYPREAKVQWKVDNALQSGNSQESVTEQDSKDSTYSLSSTLTLSKADYEKHKVYACEVTHQGLSSPVTKSFNRGEC
notes: Antibody A IgG with IL-2CP in CDR-L1; also called XFQ227
B3: FJC828 (other)
heavy: EVQLVQSGAEVKKPGESLKISCKGSGYAFTNYLIEWVRQMPGKGLEWMGVINPGSGGTNYNEKFKGQVTISADKSISTAYLQWSSLKASDTAMYYCARWRGEGYYAYFDVWGQGTTVTVSSASTKGPSVFPLAPSSKSTSGGTAALGCLVKDYFPEPVTVSWNSGALTSGVHTFPAVLQSSGLYSLSSVVTVPSSSLGTQTYICNVNHKPSNTKVDKRV[not shown - human IgG1 Fc with changes]
light: AIRLTQSPSSFSASTGDRVTITCKASQSVDYGGGGNFHLRPRDLISNINVIVLELKGSETTFMCEYADETATIVEFLNRWITFSQSIISTLTPTSSSTKKTQLQLEHLLLDLQMILNGINNYKNPKLTRMLTFKFYMPKKATELKHLQCLEEELKPLEEVLNLAQSKGGGGSDSYMNWYQQKPGKAPKLLIYAASNLESGVPSRFSGSGSGTDFTLTISSLQSEDFATYYCQQSNEDPYTFGGGTKVEIKRTVAAPSVFIFPPSDEQLKSGTASVVCLLNNFYPREAKVQWKVDNALQSGNSQESVTEQDSKDSTYSLSSTLTLSKADYEKHKVYACEVTHQGLSSPVTKSFNRGEC
notes: Antibody A IgG with IL-2CP in CDR-L1

The binders below were run against T1, His-tagged recombinant CD25 (UniProt P01589 22-213, limits assumed) (assay: SPR, CD25 captured).
T1 construct: also called IL-2R alpha chain
T1 sequence (looked up): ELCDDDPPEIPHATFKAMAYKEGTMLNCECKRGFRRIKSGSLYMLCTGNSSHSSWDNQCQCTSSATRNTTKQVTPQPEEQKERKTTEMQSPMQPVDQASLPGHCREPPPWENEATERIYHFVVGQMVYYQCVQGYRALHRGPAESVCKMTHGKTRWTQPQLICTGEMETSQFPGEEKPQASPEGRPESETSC

| Binder | binding result |
| --- | --- |
| B1 | no binding (tested: 500 nM) |
| B2 | no binding (tested: 500 nM) |
| B3 | no binding (tested: 500 nM) |

Each binder was assayed against anti-IL-2 antibody clone 5344 (assay: ELISA on clone 5344).

| Binder | EC50 [pM] |
| --- | --- |
| B1 | 110 |
| B2 | 140 |
| B3 | 280 |

These binders were tested against IL-2R on NK cells and CD8+ T cells of murine splenocytes (C57BL/6) (mouse) (assay: cell-based or functional assay).

| Binder | EC50 CD8 cells (nM), pSTAT5 [nM] | EC50 NK cells (nM), pSTAT5 [nM] |
| --- | --- | --- |
| B1 | 15.7 | 5.2 |
| B2 | 8 | 2.7 |
| B3 | 5.8 | 1.9 |

The binders below were run against T2, high affinity trimeric IL-2R on CD4+CD25+FoxP3+ Treg cells of murine splenocytes (mouse, UniProt P01590 22-268; P16297 27-539; P34902 23-369) (assay: cell-based or functional assay).
T2 sequence (looked up) 1: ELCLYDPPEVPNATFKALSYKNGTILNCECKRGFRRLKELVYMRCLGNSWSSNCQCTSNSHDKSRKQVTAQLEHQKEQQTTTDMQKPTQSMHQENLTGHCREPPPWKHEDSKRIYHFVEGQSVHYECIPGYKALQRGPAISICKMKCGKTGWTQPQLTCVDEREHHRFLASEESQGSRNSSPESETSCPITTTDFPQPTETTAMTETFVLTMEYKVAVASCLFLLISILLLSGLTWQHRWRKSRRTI
T2 sequence (looked up) 2: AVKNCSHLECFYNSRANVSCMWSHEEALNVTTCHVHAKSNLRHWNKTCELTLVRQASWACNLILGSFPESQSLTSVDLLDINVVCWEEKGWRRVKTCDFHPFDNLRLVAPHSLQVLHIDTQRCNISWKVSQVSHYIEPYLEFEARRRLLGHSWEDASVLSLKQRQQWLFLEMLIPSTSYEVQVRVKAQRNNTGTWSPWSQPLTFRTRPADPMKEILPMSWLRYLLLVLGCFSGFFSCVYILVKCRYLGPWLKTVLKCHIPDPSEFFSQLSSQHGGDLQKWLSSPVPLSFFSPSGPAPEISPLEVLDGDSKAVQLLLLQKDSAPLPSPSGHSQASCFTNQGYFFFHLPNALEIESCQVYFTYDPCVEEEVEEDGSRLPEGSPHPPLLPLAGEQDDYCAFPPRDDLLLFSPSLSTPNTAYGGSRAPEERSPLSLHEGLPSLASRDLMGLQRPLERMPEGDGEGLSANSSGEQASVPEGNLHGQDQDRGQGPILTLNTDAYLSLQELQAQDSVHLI
T2 sequence (looked up) 3: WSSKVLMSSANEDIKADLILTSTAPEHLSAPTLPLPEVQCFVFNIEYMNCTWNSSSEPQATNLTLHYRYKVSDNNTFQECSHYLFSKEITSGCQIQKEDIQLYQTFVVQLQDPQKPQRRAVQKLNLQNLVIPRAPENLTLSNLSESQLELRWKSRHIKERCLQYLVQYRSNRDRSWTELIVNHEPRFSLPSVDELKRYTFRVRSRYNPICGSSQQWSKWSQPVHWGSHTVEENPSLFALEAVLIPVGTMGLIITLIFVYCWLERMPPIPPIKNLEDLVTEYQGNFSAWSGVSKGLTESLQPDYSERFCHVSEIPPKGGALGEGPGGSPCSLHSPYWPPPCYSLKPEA

| Binder | EC50 Treg cells (nM), pSTAT5 [nM] |
| --- | --- |
| B1 | 22 |
| B2 | 10.6 |
| B3 | 8.4 |

What follows are binders tested against T3, trimeric IL-2 receptor (CD25/CD122/CD132) on HEK-Blue IL-2 reporter cells (UniProt P01589 22-272; P14784 27-551; P31785 23-369, limits assumed) (assay: cell-based or functional assay).
T3 sequence (looked up) 1: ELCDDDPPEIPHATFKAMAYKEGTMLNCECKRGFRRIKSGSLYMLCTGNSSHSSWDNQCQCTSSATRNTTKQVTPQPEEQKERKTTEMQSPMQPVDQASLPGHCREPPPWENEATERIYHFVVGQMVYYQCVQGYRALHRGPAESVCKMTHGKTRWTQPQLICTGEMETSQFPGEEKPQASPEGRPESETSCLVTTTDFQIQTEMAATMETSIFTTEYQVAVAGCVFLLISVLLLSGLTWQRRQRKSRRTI
T3 sequence (looked up) 2: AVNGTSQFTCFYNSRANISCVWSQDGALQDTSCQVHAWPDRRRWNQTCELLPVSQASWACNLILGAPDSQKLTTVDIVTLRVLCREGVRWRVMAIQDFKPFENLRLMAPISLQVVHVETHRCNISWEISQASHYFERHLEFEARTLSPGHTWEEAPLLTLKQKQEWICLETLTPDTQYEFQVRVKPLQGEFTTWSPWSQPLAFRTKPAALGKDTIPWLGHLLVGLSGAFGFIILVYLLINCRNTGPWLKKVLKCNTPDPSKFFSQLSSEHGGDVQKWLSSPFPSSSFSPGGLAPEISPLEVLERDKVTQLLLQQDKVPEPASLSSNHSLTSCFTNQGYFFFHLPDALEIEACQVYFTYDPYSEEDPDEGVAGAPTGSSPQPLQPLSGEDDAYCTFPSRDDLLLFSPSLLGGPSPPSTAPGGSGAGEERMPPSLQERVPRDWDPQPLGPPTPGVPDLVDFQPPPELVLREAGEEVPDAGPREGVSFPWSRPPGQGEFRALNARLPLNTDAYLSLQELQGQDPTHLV
T3 sequence (looked up) 3: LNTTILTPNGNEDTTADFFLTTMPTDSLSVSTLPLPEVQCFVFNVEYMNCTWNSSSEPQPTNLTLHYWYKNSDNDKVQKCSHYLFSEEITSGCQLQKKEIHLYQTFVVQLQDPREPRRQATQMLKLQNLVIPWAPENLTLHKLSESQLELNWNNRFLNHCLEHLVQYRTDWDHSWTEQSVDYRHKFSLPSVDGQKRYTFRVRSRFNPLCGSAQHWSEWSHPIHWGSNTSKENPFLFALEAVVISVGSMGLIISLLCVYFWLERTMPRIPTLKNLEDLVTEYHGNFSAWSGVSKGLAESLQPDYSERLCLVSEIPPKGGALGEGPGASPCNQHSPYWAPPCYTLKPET

| Binder | EC50, HEK Blue IL-2 reporter assay (SEAP) [pM] |
| --- | --- |
| B1 | 3.59 |
| B2 | 3.03 |
| B3 | 3.16 |

Reference: patent US20260207767A1 (ANAVEON, published 2026)
